# Results from PubChem BioAssay AID1347428 (National Center for Advancing Translational Sciences (NCATS), 2020).
# In all, about 91,000 compounds went through this assay and about 290 (0.32%) were called active. Inconclusive results, whose numbers are uncertain, are shown with a selection of clear calls. The call rests on the fitted dose curve; in most records, active means well fitted inhibition curve with a large enough effect; inconclusive means small, poorly fitted or top-dose-only effect; inactive means no such curve, though single readings can be large or run the other way. A potency beside an inconclusive call is a rough fit, not a confirmed value.
# Biological target: Single-stranded DNA cytosine deaminase (Homo sapiens) (UniProt Q9GZX7)
# Assay: Primary qHTS assay for inhibitors of Activation Induced Cytidine Deaminase (AID): AID signal; further: nearly all actives have a fitted effect of over 25% in size
# Settings: AID deamination FRET fluorescence, UDG-coupled, 4 h; series mostly up to 115 µM
# Potency means the concentration at half of the fitted maximal effect; tags describe the fitted curve by direction and shape.
# Chain of UniProt Q9GZX7 (Q9GZX7 whole entry, looked up): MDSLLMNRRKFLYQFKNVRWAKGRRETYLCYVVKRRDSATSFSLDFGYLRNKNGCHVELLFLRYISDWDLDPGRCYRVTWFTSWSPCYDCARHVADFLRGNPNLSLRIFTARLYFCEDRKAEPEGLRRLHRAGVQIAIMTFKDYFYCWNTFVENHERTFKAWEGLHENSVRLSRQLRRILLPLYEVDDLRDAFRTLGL
row,Structure (SMILES),Potency
1,CCOC(=O)N1CCN(C(=O)c2ccc3c(c2)N(Cc2cc(C)ccc2C)C(=O)c2ccccc2S3=O)CC1 (stereo not given),"inconclusive: 89.1 µM [inhibitor, partial curve, poor fit]"
2,O=C(CSc1ncc(S(=O)(=O)c2ccc(Cl)cc2)c(=O)[nH]1)Nc1ccc2c(c1)OCCO2,"inconclusive: 89.1 µM [inhibitor, single point]"
3,CC1CCN(S(=O)(=O)c2ccc3c(c2)N(CC(=O)NCCc2ccc(Cl)cc2)C(=O)CO3)CC1,"inconclusive: 79.4 µM [inhibitor, single point]"
4,Cc1c(Cl)cccc1Nc1nc(N)nc(CSc2nc3ccccc3s2)n1,"inconclusive: 14.1 µM [inhibitor, full curve, poor fit]"
5,CC(C)c1ccc(-c2[nH]c3ccccc3c2C=O)cc1,inactive
6,CC[C@@H]1CC2C3CCC4=C/C(=N/O)CC[C@]4(C)C3CC[C@]2(C)[C@H]1/C(C)=N/O (stereo not given in full),inactive
7,CC1CCN(c2nc3c(S(=O)(=O)c4ccc(Cl)cc4)nnn3c3ccsc23)CC1,"inconclusive: 89.1 µM [inhibitor, partial curve, poor fit]"
8,COc1ccc(-c2cc(C)no2)cc1S(=O)(=O)N1CCN(c2ccccc2F)CC1,"inconclusive: 17.8 µM [inhibitor, full curve, poor fit]"
9,COc1ccc2nc(Nc3nc(C)c(CCC(C)C)c(=O)[nH]3)nc(C)c2c1,inactive
10,CC(C(=O)Nc1c(F)cccc1F)N1CCN(c2ccc(O)cc2)CC1 (stereo not given),inactive
11,CCNC(=O)c1ccc(CSc2nc3ccncc3n2Cc2ccc(F)cc2)cc1,"inconclusive: 63.1 µM [inhibitor, partial curve, poor fit]"
12,Cc1ccccc1-c1nnc(SCC(=O)N(C)C2CCCCC2)o1,"inconclusive: 100 µM [inhibitor, single point]"
13,CCOc1ccc(CCNC(=O)C2CCN(C(=O)c3cc4sccc4n3CC)CC2)cc1OCC,"inconclusive: 35.5 µM [inhibitor, partial curve]"
14,COc1cccc(N2CCN(C(=O)c3cccn3-c3nnc(N4CCCC4)s3)CC2)c1,"inconclusive: 100 µM [inhibitor, single point]"
15,C=CCc1c(C)nc2nc(SCC(=O)Nc3ccc(C)c(C)c3)nn2c1C,"inconclusive: 12.6 µM [inhibitor, full curve, poor fit]"
16,COc1ccc(CCNC(=O)c2cnn(-c3ccc(F)cc3)c2C2CCN(C(=O)OC(C)(C)C)CC2)c(OC)c1,"inconclusive: 25.1 µM [inhibitor, full curve, poor fit]"
17,CCN1CCN(c2nc(-c3ccccc3)nc3cc(OC)c(OC)cc23)CC1,inactive
18,CCc1ccc(OCC(=O)N(Cc2ccc(C)o2)C2CCS(=O)(=O)C2)cc1 (stereo not given),"inconclusive: 31.6 µM [inhibitor, partial curve, poor fit]"
19,Cc1ccc(S(=O)(=O)N(CC(=O)NCCc2ccc(Cl)cc2)c2ccccc2C)cc1,"inconclusive: 15.8 µM [inhibitor, full curve, poor fit]"
20,CC(C)NC(=O)c1cccc(NC(=O)CCCC(=O)O)c1,inactive
21,COc1ccc(-c2noc(CCC(=O)Nc3ccc(C(F)(F)F)cc3)n2)cc1,"inconclusive: 2.82 µM [inhibitor, full curve, poor fit]"
22,O=C(c1cccc(Br)c1)C(Cl)C(=O)c1cccc(Br)c1,inactive

row,Structure (SMILES),Potency
1,Cc1ccc(NC(=O)CSc2nnc3[nH]c(=O)cc(-c4ccccc4)n23)cc1Cl,"inconclusive: 70.8 µM [inhibitor, single point]"
2,NS(=O)(=O)c1ccc(N/N=C/c2sc(Nc3ccccc3)nc2Cl)c([N+](=O)[O-])c1,inactive
3,COc1cc2c(=O)n(CCC(=O)NCC3CCCO3)c(=O)n(CC(=O)Nc3ccc(C)cc3C)c2cc1OC (stereo not given),"inconclusive: 50.1 µM [inhibitor, partial curve, poor fit]"
4,CCCCN(C)C(=O)C1CCN(C(=O)/C=C/c2c(Cl)cccc2Cl)CC1,inactive
5,CNC(=S)N/N=C1/CCCCC1C (stereo not given),inactive
6,CCOC(=O)c1ccccc1NC(=O)COc1ccccc1-c1nnc(-c2ccccc2)o1,"inconclusive: 50.1 µM [inhibitor, partial curve]"
7,O=c1ccc(-c2ccccc2)nn1Cc1ccc(F)cc1Cl,"inconclusive: 79.4 µM [inhibitor, partial curve]"
8,Cc1cccc(C(=O)N2c3nc(-c4ccco4)nn3C3(CCCCC3)[C@@H]3CCCC[C@@H]32)c1,"inconclusive: 89.1 µM [inhibitor, single point]"
9,CCC1CN(S(=O)(=O)c2cc(-c3onc(C)c3C)ccc2C)c2cc(Cl)ccc2O1 (stereo not given),"inconclusive: 44.7 µM [inhibitor, partial curve, poor fit]"
10,COC(=O)c1ccc(COc2ccccc2/C=C2\CCc3cc(OC)ccc3C2=O)cc1,inactive
11,CCCN1CCN(c2ncnc3sc(C(=O)Nc4c(C)cc(C)cc4C)c(C)c23)CC1,"inconclusive: 79.4 µM [inhibitor, single point]"
12,CC(C)OC(=O)c1c(-c2ccccc2)c(-c2ccccc2)nn(C)c1=O,"inconclusive: 50.1 µM [inhibitor, partial curve, poor fit]"
13,O=C1c2ccccc2C(=O)c2c(NCCc3ccc(O)cc3)ccc(NCCc3ccc(O)cc3)c21,"inconclusive: 50.1 µM [inhibitor, partial curve, poor fit]"
14,Cc1ccc2c(CN3CCN(C(=O)c4ccc(Br)cc4)CC3)cc(=O)oc2c1,"inconclusive: 89.1 µM [inhibitor, single point]"
15,CCC(C(=O)N1CCN(c2cc(C)ccc2C)CC1)n1nc(C)n2c(cc3occc32)c1=O (stereo not given),"inconclusive: 56.2 µM [inhibitor, partial curve, poor fit]"
16,CCCN(CCC)CC(O)Cn1cc(/C=C/C(=O)c2ccc(Br)cc2)c2ccccc21 (stereo not given),inactive
17,Cc1ccc(-c2ccc(CCC(=O)O)n2-c2ccc(C(C)C)cc2)cc1,"inconclusive: 63.1 µM [inhibitor, partial curve, poor fit]"
18,Cc1cnc(C(=O)OC(C)C(=O)c2ccc(C(C)(C)C)cc2)cn1 (stereo not given),inactive
19,COc1ccccc1CNC(=O)Cn1ncc2c(C)n(Cc3ccccc3Cl)c(C)c2c1=O,"inconclusive: 63.1 µM [inhibitor, partial curve, poor fit]"
20,CC(C)c1ccccc1NC(=O)CSc1nnc(COc2ccccc2Cl)o1,inactive
21,Cc1ccc(NC(=O)/C(C#N)=C\c2ccc(Cl)cc2Cl)cc1C,inactive
22,O=C(Nc1nc(-c2ccc(Br)cc2)ns1)c1ccccc1F,inactive

row,Structure (SMILES),Potency
1,Cc1ccc(-n2ncc(C(=O)N3CCC(c4ccccc4)C3)c2C2CCN(C(=O)OC(C)(C)C)CC2)cc1 (stereo not given),"inconclusive: 89.1 µM [inhibitor, partial curve, poor fit]"
2,Cc1ccc(C)c(CN2C(=O)c3ccccc3S(=O)c3ccc(C(=O)N(C)Cc4ccccc4)cc32)c1 (stereo not given),"inconclusive: 70.8 µM [inhibitor, partial curve, poor fit]"
3,Cc1ccc(C)c(N2CCN(C(=O)c3cc4c(=O)n(Cc5cccs5)ccc4nc3C)CC2)c1,"inconclusive: 31.6 µM [inhibitor, full curve, poor fit]"
4,O=C(Cn1cc(SCc2ccccc2F)c2ccccc21)N1CCCCCC1,"inconclusive: 89.1 µM [inhibitor, single point]"
5,CCOC(=O)N1CCC(NC(=O)c2ccc3c(c2)N(Cc2cc(C)ccc2C)C(=O)c2ccccc2S3(=O)=O)CC1,"inconclusive: 10 µM [inhibitor, full curve, poor fit]"
6,Cc1ccc(C)c(NC(=O)c2nc(S(C)(=O)=O)ncc2N(Cc2ccc(C(C)(C)C)cc2)Cc2ccco2)c1,"inconclusive: 12.6 µM [inhibitor, full curve, poor fit]"
7,CCCCCCCC/C=C\CCCCCCCC(=O)NCc1ccc(O)c(OC)c1,inactive
8,Cc1cc(=O)oc2cc(NC(=O)N(C)Cc3ccccc3Br)ccc12,inactive
9,CC1=CC(=O)C2(CCCCC2)NC1,inactive
10,CC1CCCN(c2nc3c(S(=O)(=O)c4ccc(C(C)C)cc4)nnn3c3ccsc23)C1 (stereo not given),"inconclusive: 15.8 µM [inhibitor, full curve, poor fit]"
11,CCN(CCCNC(=O)c1ccc(Sc2ccc(F)cc2)c(NC(C)=O)c1)c1ccccc1,"inconclusive: 79.4 µM [inhibitor, partial curve, poor fit]"
12,Cc1ccc(CSC2=Nc3ccccc3C3=NC(CCC(=O)NCc4cccs4)C(=O)N23)cc1 (stereo not given),active: 89.1 µM
13,Cc1cc(SSc2nc(C)cc(C)n2)nc(C)n1,inactive
14,CSc1cccc(NC(=O)C2CCCN(C(=O)c3cnn(-c4ccc(F)cc4)c3-n3cccc3)C2)c1 (stereo not given),"inconclusive: 79.4 µM [inhibitor, single point]"
15,Cc1ccc(NC(=O)Nc2ccc3nc(N4CCN(C)CC4)cc(C)c3c2)cc1F,inactive
16,O=C(/C=C/c1cccc(F)c1)Nc1ccc(Cl)c(C(F)(F)F)c1,inactive
17,O=C(O)CCc1ncc(-c2c(F)cccc2F)o1,inactive
18,Cc1cc2ccccc2n1CC(=O)NC1CCN(C(C)(C)C)CC1,inactive
19,Cc1cc(C)c(NC(=O)CSc2nccn2-c2cccc(Cl)c2)c(C)c1,"inconclusive: 50.1 µM [inhibitor, partial curve, poor fit]"
20,CCCc1cc(N2CCN(c3cccc(C)c3C)CC2)n2cnnc2n1,"inconclusive: 35.5 µM [inhibitor, partial curve]"
21,Cc1ccccc1N1CCN(S(=O)(=O)c2ccccc2)CC1,"inconclusive: 39.8 µM [inhibitor, single point]"
